Data reported in PubChem BioAssay AID588453 (National Center for Advancing Translational Sciences (NCATS), 2011).
The campaign covered roughly 390,000 compounds. About 4,000 (1%) were called active. Inconclusive means that the source gave no clear call. Such entries were picked first, then a sample of the others. The call rests on the fitted dose curve; in most records, active means well fitted inhibition curve with a large enough effect; inconclusive means small, poorly fitted or top-dose-only effect; inactive means no such curve, though single readings can be large or run the other way. Potencies beside an inconclusive call are fits to weak or partial responses and may not hold up.

target: Thioredoxin reductase 1, cytoplasmic (Rattus norvegicus) (UniProt O89049); experiment: qHTS Assay for Inhibitors of Mammalian Selenoprotein Thioredoxin Reductase 1 (TrxR1): qHTS; details: recombinant rTrxR1, NADPH fluorescence consumption, selenite substrate; series mostly up to 114 µM; further: nearly all actives have a fitted effect of over 65% in size
Summary of the method: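 Rat TrxR1 (90 nM in the dispensed reagent) was pre-reduced with 400 uM NADPH for 5 min at room temperature, then incubated with compound for 15 min. After 400 uM selenite was added, NADPH fluorescence (Ex 340/Em 450 nm) was followed for 8 min.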
Potency means the concentration at half of the fitted maximal effect; tags describe the fitted curve by direction and shape.

Chain of UniProt O89049 (O89049 whole entry, looked up): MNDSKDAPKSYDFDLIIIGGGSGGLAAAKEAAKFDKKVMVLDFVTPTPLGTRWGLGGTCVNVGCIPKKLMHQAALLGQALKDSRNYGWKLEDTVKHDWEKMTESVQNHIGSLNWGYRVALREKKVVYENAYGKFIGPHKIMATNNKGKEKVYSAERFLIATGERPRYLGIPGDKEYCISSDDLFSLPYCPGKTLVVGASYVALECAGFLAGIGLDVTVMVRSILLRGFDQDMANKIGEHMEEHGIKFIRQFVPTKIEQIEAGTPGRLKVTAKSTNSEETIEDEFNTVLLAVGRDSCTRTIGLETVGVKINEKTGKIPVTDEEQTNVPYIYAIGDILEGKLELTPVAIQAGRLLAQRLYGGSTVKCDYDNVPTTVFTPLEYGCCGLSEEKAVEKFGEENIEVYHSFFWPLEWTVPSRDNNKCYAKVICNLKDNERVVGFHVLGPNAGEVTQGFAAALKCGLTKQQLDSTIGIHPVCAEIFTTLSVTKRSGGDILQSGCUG

SMILES | Potency
COc1cc(C(c2c(C)[nH][nH]c2=O)c2c(C)[nH][nH]c2=O)cc(Br)c1OC | inconclusive: 31.6 µM [inhibitor, full curve]
O=C(COC(=O)c1ccc(Br)o1)NCc1ccco1 | inconclusive: 79.4 µM [inhibitor, single point]
CN1CCN(S(=O)(=O)c2ccc(N3CCN(c4ccc(O)cc4)CC3)c([N+](=O)[O-])c2)CC1 | inconclusive: 89.1 µM [inhibitor, single point]
C#CC(=O)CC1(CN(Cc2ccccc2)C(=O)OC(C)(C)C)CCCCC1 | active: 2 µM
O=C1CSC(=S)N1/N=C/c1cccc(C(F)(F)F)c1 | inconclusive: 50.1 µM [inhibitor, partial curve, poor fit]
CCC1(C)Cc2c(sc3nc(SC)[nH]c(=S)c23)CO1 (centres undefined) | inconclusive: 15.8 µM [inhibitor, partial curve]
O=C(COc1ccccc1Cl)Nc1ccccc1C(=O)N1CCOCC1 | inactive
CCOC(=O)N1CCc2c(sc(NCc3sccc3C)c2C(=O)Nc2ccc(OC)cc2OC)C1 | inactive
CCNc1ccc(Br)cc(C(=O)/C=C/c2ccccc2Cl)c1=O | inconclusive: 10 µM [inhibitor, partial curve, poor fit]
Cc1csc(NC(=O)c2sccc2C)n1 | inactive
CC1S/C(=C(\C#N)C(=O)NCc2ccco2)N(Cc2ccco2)C1=O (centres undefined) | inconclusive: 14.1 µM [inhibitor, full curve]
N#CC1=C(N)C2=CCCC[C@H]2[C@H](c2cccc(F)c2)C1(C#N)C#N | inconclusive: 56.2 µM [inhibitor, partial curve, poor fit]
Cc1cc(Cl)ccc1OCc1nc(-c2ccc(-n3cccc3)cc2)no1 | inactive
C/C(CC(=O)Nc1ccccn1)=N\NC(=O)c1ccccc1O | inactive
CC(C)c1nnc(SCC(=O)NCc2ccco2)n1C | inconclusive: 56.2 µM [inhibitor, partial curve]
Cc1cc(C(=O)COC(=O)c2cc(O)c3ccccc3c2O)c(C)n1CC1CCCO1 (centres undefined) | inactive
COc1ccc(/C=C/C(=O)Nc2ccc3nc4c(c(Nc5ccccc5OC)c3c2)CCCC4)cc1 | inactive
Cc1ccc(S(=O)(=O)c2nnn3c2nc(N2CCN(c4ccccc4F)CC2)c2cc(Cl)ccc23)cc1C | inactive
CCN(CC)S(=O)(=O)N1CCC(C(=O)NC2CCCc3ccccc32)CC1 (centres undefined) | inconclusive: 39.8 µM [inhibitor, single point]
CCCCc1cc(=O)oc2c(CN(C)C)c(O)ccc12 | inconclusive: 39.8 µM [inhibitor, single point]
CCn1cc(C(=O)NC(=S)Nc2ccccc2Br)cn1 | inconclusive: 35.5 µM [inhibitor, partial curve]
COc1ccc(/C=C2/CCCC(C(=O)C(F)(F)F)=C2O)cc1OC | inconclusive: 44.7 µM [inhibitor, partial curve, poor fit]
N#Cc1c(-c2ccco2)c2c([nH]c1=S)CCCC2 | inconclusive: 17.8 µM [inhibitor, partial curve, poor fit]

SMILES | Potency
COc1ccc(-n2c(-c3ccc(OC)c(OC)c3)n[nH]c2=S)cc1 | inconclusive: 44.7 µM [inhibitor, partial curve]
Cc1cc(F)ccc1NS(=O)(=O)c1ccc(-n2cccn2)cc1 | inactive
O=C(c1ccco1)N1CCN(C(=O)c2ccc(COc3ccc4c(c3)CCC4)o2)CC1 | inconclusive: 70.8 µM [inhibitor, single point]
Cc1ccc(C(=O)CCS(=O)(=O)c2ccc(Cl)cc2)cc1 | active: 0.562 µM
Cc1cc(=O)n2c3c(c4c(cc13)c(CN(C)C)cc(=O)n4C)OC2 | inconclusive: 89.1 µM [inhibitor, single point]
Cc1cc(C)c2[nH]c(=O)c(C(c3nnnn3C(C)(C)C)N3CCN(C(=O)c4ccco4)CC3)cc2c1 (centres undefined) | active: 15.8 µM
Cc1ccc(S(=O)(=O)c2ccc([N+](=O)[O-])o2)cc1 | inconclusive: 0.355 µM [inhibitor, full curve, poor fit]
S=c1nc(-c2ccccc2Cl)[nH][nH]1 | inconclusive: 8.91 µM [inhibitor, partial curve]
O=C(COC(=O)CC12CC3CC(CC(Br)(C3)C1)C2)NC(=O)NCc1ccco1 | inconclusive: 89.1 µM [inhibitor, partial curve, poor fit]
O=C(CCc1nnc2ccc(NCc3ccco3)nn12)N1CCN(c2ccccc2)CC1 | inconclusive: 56.2 µM [inhibitor, partial curve, poor fit]
Cc1ccc(CNC(=O)c2coc(=O)c3ccccc23)o1 | inconclusive: 35.5 µM [inhibitor, single point]
Cc1ccccc1N1CN(Cc2ccco2)CNC1=S | inactive
O=[N+]([O-])c1ccc(C2CN=C(Nc3ccccc3)S2)cc1 (centres undefined) | inactive
COc1cc(C2C(C(=O)Nc3ccccc3C)=C(C)Nc3ncnn32)ccc1OCC(N)=O (centres undefined) | inactive
O=C(O)c1cc(-c2ccco2)nn1-c1ccc(Cl)cc1 | inconclusive: 28.2 µM [inhibitor, single point]
O=C(O)CC1=C(O)C(=O)N(c2ccccc2)C1c1ccc(Br)cc1 (centres undefined) | inconclusive: 28.2 µM [inhibitor, partial curve, poor fit]
CSc1nnc(C)c(=O)n1COC(=O)/C=C/c1ccc2c(c1)OCO2 | inconclusive: 15.8 µM [inhibitor, full curve, poor fit]
O=S(=O)(c1ccc(Cl)cc1)c1nc(-c2ccco2)oc1N1CCCCC1 | inconclusive: 79.4 µM [inhibitor, partial curve]
O=C(NC(NNc1ccc([N+](=O)[O-])cc1)(C(F)(F)F)C(F)(F)F)c1ccc(F)cc1 | active: 28.2 µM
O=[N+]([O-])c1ccc(CSC2=NCCN2)cc1 | inconclusive: 50.1 µM [inhibitor, single point]
C#CCNC(=O)C1=C[C@H](C(C)(C)C)C[C@H](OCc2ccc(CO)cc2)O1 | inactive
NC(=O)CSc1oc(-c2ccco2)nc1S(=O)(=O)c1ccc(Cl)cc1 | inconclusive: 50.1 µM [inhibitor, partial curve, poor fit]
O=c1c2ccccc2cnn1Cc1n[nH]c(=S)n1-c1cc(Cl)cc(Cl)c1 | inconclusive: 28.2 µM [inhibitor, partial curve]

SMILES | Potency
COc1ccc(CCNc2nc(-c3ccc(F)cc3)c(CC(=O)O)s2)cc1OC | inactive
O=C(CSc1n[nH]c(-c2cccs2)n1)N1CCCc2ccccc21 | inactive
Nc1c(C(=O)N2CCOCC2)sc2nc(N3CCOCC3)c3c(c12)CCCC3 | inactive
CS(=O)(=O)c1ccc2nc(NC(=O)CCC(=O)c3cccs3)sc2c1 | inconclusive: 39.8 µM [inhibitor, partial curve, poor fit]
CCCCC(=O)N(CCC)CCC | inactive
O=C1C(Cc2ccc3[nH]ccc3c2)NC(=S)N1c1ccccc1 (centres undefined) | inconclusive: 31.6 µM [inhibitor, partial curve, poor fit]
c1coc(-c2nc3ccccc3nc2-c2ccco2)c1 | inconclusive: 6.31 µM [inhibitor, full curve, poor fit]
O=C(O)CCCNC(=O)CC1S/C(=N/N=C/c2ccccc2O)NC1=O (centres undefined) | inactive
O=C(NCCc1ccccc1)c1coc(=O)c(Br)c1 | inactive
CCC(C(=O)NC1C(=O)N2C(C(=O)O)=C(CSc3nnc(C)s3)CSC12)c1ccccc1 (centres undefined) | inconclusive: 20 µM [inhibitor, full curve]
COc1ccc(NS(=O)(=O)c2ccc(NC(=S)NCC3CCCO3)cc2)cc1 (centres undefined) | inconclusive: 89.1 µM [inhibitor, single point]
COc1ccccc1OCCC(=O)OCC(=O)Nc1cc(S(=O)(=O)N(C)C)ccc1Cl | inconclusive: 56.2 µM [inhibitor, partial curve, poor fit]
Cc1cc(C)nc(SCc2nnc(SCC(=O)Nc3ccccc3C)n2Cc2ccco2)n1 | inconclusive: 44.7 µM [inhibitor, partial curve, poor fit]
CCN(c1ccccc1)S(=O)(=O)c1cccc(C(=O)Nc2ccc(C)cn2)c1 | inactive
Fc1cc2[nH]c(=S)[nH]c2cc1Cl | inconclusive: 63.1 µM [inhibitor, partial curve, poor fit]
CCOc1ccc(C(=O)CCNC(Cc2cnc[nH]2)C(=O)O)cc1 (centres undefined) | inconclusive: 5.62 µM [inhibitor, partial curve]
CCCOc1cccc(C2C(C(=O)c3ccco3)=C(O)C(=O)N2CCN(CC)CC)c1 (centres undefined) | inconclusive: 35.5 µM [inhibitor, partial curve, poor fit]
Cc1ccc(-n2ccc(=O)c(-c3ccnc(SCc4cccc(Cl)c4)n3)n2)cc1 | inactive
CCCc1cc(Nc2c(C)n(C)n(-c3ccccc3)c2=O)n2c(nc3ccccc32)c1C#N | inconclusive: 39.8 µM [inhibitor, single point]
Cc1ccc2nc(N(CCCN(C)C)C(=O)c3ccc(S(=O)(=O)N4CCc5ccccc5C4)cc3)sc2c1 | inactive
Nc1nc(Sc2ccc([N+](=O)[O-])cc2[N+](=O)[O-])n[nH]1 | inconclusive: 56.2 µM [inhibitor, partial curve]
COc1ccc(NC(=O)CSc2nncn3c2cc2oc(C)cc23)cc1OC | inconclusive: 31.6 µM [inhibitor, single point]
Cc1cc(C)c2oc(-c3cccc(NC(=O)COc4ccc(Cl)cc4C)c3C)nc2c1 | inactive
